Laboratory results from the supplement of paper PMC11417369.
± gives the standard deviation of the averaged measurements. This is one part of the list.

Test system: PfAP2-EXP AP2 domain (GST-tagged)
Test: gcPBM binding intensity (ln(normalized median fluorescence intensity)); higher = stronger DNA binding
Procedure, shortened: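 Alexa488 anti-GST antibody, scanned at 488 nm, detected GST-tagged P. falciparum DNA-binding domains that had been expressed in E. coli and incubated for 1 h on an Agilent 4 × 180k array. The array carried primer-extended double-stranded 36-bp intergenic genomic probes and negative controls. Binding intensity is the highest Masliner-normalised natural-log median intensity across replicate spots of either orientation of each probe.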

| Sequence | gcPBM binding intensity (ln) |
| --- | --- |
| TATATACTATATATATGTACACAAAATTATTTTGAA [XGTACX_site8232] | 8.54 ± 0.35 |
| ATATGTAGTGTTATTTGTTCATTGTTTTAATTTTTA [CACACA_negctrl_site1394] | 8.7 ± 0.47 |
| TAATTATATAAATACACACACATACACCCAAATAAA [CACACA_site5819] | 8.96 ± 0.48 |
| TAAATGAAAATATGTACACACTTGAAAATTTTTATG [CACACA_site5599] | 8.69 ± 0.43 |
| TATATTATATATATATGTACATATTATTATATCTAA [XGTACX_site3835] | 8.31 ± 0.33 |
| TTTTGTATTTTTCACACACACATAAGTAAACAATAA [CACACA_site1899] | 8.62 ± 0.35 |
| AAACATATGGTATTTAAACACACAAAAAAGAAAGAA [CACACA_site8239] | 9.07 ± 0.4 |
| ATGTTGTGGATATATACACACATACATATTTATATA [CACACA_site6857] | 8.39 ± 0.31 |
| AAATTAAATATTATATTAATTCTTAAATTTTTTTTT [CACACA_negctrl_site439] | 7.8 ± 0.34 |
| ATACAATAATATAAATGTACAAATTATATCTTCATT [XGTACX_site8994] | 8.37 ± 0.33 |
| AATCTTTTTAAATCTTGATTAATTTCGGGTATATAT [TGCATGCA_negctrl_site107] | 8.53 ± 0.48 |
| TACAAGAACAAAAAATGTACGAAATAATTACAAATA [XGTACX_site5824] | 8.77 ± 0.42 |
| AATTTCAATTTCTGTTGTACACTTTTTAATAGTAAA [XGTACX_site4085] | 8.65 ± 0.46 |
| AAATTTAAAAATAAAGAACACACATATGTAAAATAT [CACACA_site9252] | 8.78 ± 0.52 |
| AAAAAAAAAAAAAAAACACACAAACATCAAATTACT [CACACA_site6950] | 8.69 ± 0.24 |
| TATGATAAATATGGAGCACACACACCGAAACATACA [CACACA_site8031] | 9.01 ± 0.49 |
| TAGCATGATTTGCCTTGTACACAACCGTTTTAATAA [XGTACX_site7911] | 8.66 ± 0.4 |
| AAGTGTTCTTGTTATACACACACATATATATATATA [CACACA_site8251] | 10.1 ± 0.16 |
| TATTTATAAATATACGCACACATTAATATATATATA [CACACA_site3969] | 9.44 ± 0.21 |
| GTTGGTAGGCGGTACGGTACACGTAGTATTTTTCTT [XGTACX_site4213] | 8.64 ± 0.39 |
| ATATTATTTATTTTTAAATTATATTGATTATTTTTT [CACACA_negctrl_site451] | 7.94 ± 0.35 |
| AGTATGTAAATGTGCCATATATATATTAAATACATA [CACACA_negctrl_site14] | 8.57 ± 0.36 |

| Sequence | gcPBM binding intensity (ln) |
| --- | --- |
| TAGAAATATATTTATTGTACATTGTATATATTATAT [XGTACX_site7584] | 8.35 ± 0.48 |
| TTGAAGTGTACTATTTTATATATATATATACATTTT [CACACA_negctrl_site224] | 8.66 ± 0.23 |
| TCTTTTTTTTTTACTAGTACTTAAAAAAAAAATATG [XGTACX_site4395] | 8.39 ± 0.33 |
| ATTATGTGCCAATACACACACACATCTATATTTATA [CACACA_site6359] | 8.72 ± 0.31 |
| TTTTAATTTTTAAGACGTACTATCATTTGATAATAA [XGTACX_site3942] | 8.1 ± 0.42 |
| TACGATGTTTTAAAATGTACATAAAAGTCACATAAG [XGTACX_site3297] | 8.52 ± 0.34 |
| TAATGTTCCTATATAGTGCAATTATGTTTTATTTCT | 8.79 ± 0.22 |
| ACTGTGGGAATAACCACACACACACCCACATATATA [CACACA_site3542] | 8.47 ± 0.38 |
| ATATTTATATGAATCACACACAAAAAATATAGAGAT [CACACA_site7775] | 8.73 ± 0.29 |
| TATATACGCATGCGCACACACAAGTGGGAAATTTGG [CACACA_site1785] | 9.3 ± 0.43 |
| TTATTATATAAATAAAAAAAAAAAAAAAAAAAAAAA [CACACA_negctrl_site1455] | 7.9 ± 0.37 |
| AAATCACAAAAAAAAAAAAAAATATATATATATATA [CACACA_negctrl_site10] | 10.1 ± 0.37 |
| CATAAATACAAATATACACACATATATATATATATA [CACACA_site2633] | 10.1 ± 0.35 |
| AATATGTTTTTTAGATGTACAGATTAAATATTAAAA [XGTACX_site7308] | 8.47 ± 0.42 |
| AAATAGTAAGAGATGGTGCGTTTCCTTTTTTTTTTT [GTGCAC_site9663] | 8.54 ± 0.15 |
| TTTAAAAATATTTCACGTACGCATTTTAAAAAGTAT [XGTACX_site8026] | 8.57 ± 0.35 |
| TTTTTTTCATATATATGTACATAATTATATATGCAT [XGTACX_site3257] | 8.83 ± 0.38 |
| CGTGGGAGCAGACACACACACACACCCATATATATA [CACACA_site334] | 8.53 ± 0.12 |
| TTAATTATATGGTAAACAAATAAATGTGAAAGGAAA [XGTACX_negctrl_site389] | 8.92 ± 0.41 |
| TATATACAACGTTAAGCACACACAAAAAAAATTTAA [CACACA_site9013] | 8.7 ± 0.54 |
| TTAAAAATAAATTCATGTACATAATATATATATATA [XGTACX_site7908] | 10.01 ± 0.057 |
| CATATGTATATGACTACACACAAGGGTGTACCTATA [CACACA_site6670] | 8.36 ± 0.44 |

| Sequence | gcPBM binding intensity (ln) |
| --- | --- |
| AAAACATAAATACATACACACATAATATAGATTAAT [CACACA_site6205] | 8.76 ± 0.35 |
| TTGCATTTATTATACACACACAAAAAAATATTTATA [CACACA_site6252] | 8.56 ± 0.38 |
| TGTTCATTTTTAAAATGTACATATATGTTGTTCCAT [XGTACX_site8444] | 8.96 ± 0.42 |
| CTATATGTTAAATTCTCACACATTATTACAATTTAA [CACACA_site5979] | 8.6 ± 0.42 |
| ACGTATTTTTAAATATATGAATTATGTAACTTGTGA [CACACA_negctrl_site1446] | 8.16 ± 0.38 |
| GAATATGTGATATTTTGTACATAAAAATAATATATA [XGTACX_site6398] | 8.51 ± 0.4 |
| TATACTATTTAAATGTGTACTAAAAGAATATATTAT [XGTACX_site5238] | 8.54 ± 0.45 |
| AGTAGTCTGGAGAAAAGTACATAGTATCTGATAACC [XGTACX_site2028] | 8.81 ± 0.51 |
| TATTATAATATATTTGTGCACATAATATCTCCGCTA [GTGCAC_site9799] | 8.91 ± 0.26 |
| TGCTTATATATAAATTGTACTGAAAGAATAAAATAA [XGTACX_site4025] | 8.52 ± 0.51 |
| AAAAAGATAAAATATACATGCATATATAATATACAT [TGCATGCA_site488] | 8.49 ± 0.2 |
| AAAAAAAAAAAATACACACACATATTTATTTATATA [CACACA_site7114] | 8.2 ± 0.35 |
| AAAAAAGGTAAAAAAAGTACAAAAAAAAAATTAAAA [XGTACX_site6993] | 8.49 ± 0.55 |
| GTATAATATTTTAATGCACACACACTAATAAAAAAA [CACACA_site8939] | 8.78 ± 0.24 |
| TTGACAGGAACGTTGGTGCACGTACTGTTTTTCTTT [GTGCAC_site9389] | 8.77 ± 0.16 |
| TTTGGATAAAAAATATGTACACACATATAGATATCT [XGTACX_site5660] | 8.56 ± 0.5 |
| AAGTATAAATAAAGGCGTACACATGTAAATTATATT [XGTACX_site126] | 8.9 ± 0.13 |
| AAAATAATTCATGTTGGTAATAAGACTCGAGGTGAA [CACACA_negctrl_site1054] | 8.77 ± 0.54 |
| TAATAGATGTTATGAAGTACTAAATATTAAATATAA [XGTACX_site5717] | 8.55 ± 0.45 |
| TTTATTTTAAATGGGTGTACTCATTCCTTATGGAAG [XGTACX_site1397] | 8.46 ± 0.35 |
| GATTTATACAAATATGTACACACTAAATATATATTA [CACACA_site455] | 8.64 ± 0.24 |
| TTTATTTTATTTTCATGTACAAAAGGGGAATAATAA [XGTACX_site2704] | 8.71 ± 0.18 |

| Sequence | gcPBM binding intensity (ln) |
| --- | --- |
| ATATGTATGTATTTATTATTGTGCATTGTATTTATA [CACACA_negctrl_site664] | 8.69 ± 0.2 |
| TATTTATCTTTACGCACACACTTGCATGTACAAAAG [CACACA_site4753] | 9.32 ± 0.19 |
| AATACCCATATCTTCACACATACATAATAAATTATA [CACACA_site5367] | 8.55 ± 0.28 |
| TTTATTTATGTGTGGGTGCATATACGTATGATGTAT | 9.12 ± 0.3 |
| TTTGAATATTCATATGCACACAAATTAATATACATA [CACACA_site8040] | 8.31 ± 0.25 |
| ATTTATTAATTACCATGTATAAAAAATTATATAATA [CACACA_negctrl_site581] | 8.19 ± 0.51 |
| GTCGTATAATTTTCAGTGCAATATTTGAATAAATGG [GTGCAC_site9404] | 8.91 ± 0.25 |
| ATACAATACAAAAACACACACAAAAAAAGAAAAGGA [CACACA_site2156] | 8.83 ± 0.67 |
| AGCAACTCAATATATATAAGAATTGTAATATAATAT [GTGCAC_negctrl_site429] | 8.34 ± 0.5 |
| ATATATTTATATATTTGTACATATAATATCTTCTTT [XGTACX_site8504] | 8.37 ± 0.38 |
| TAATAAATCAATAAATGTACATATATGTATAATTTC [XGTACX_site980] | 8.47 ± 0.33 |
| ATAATGTATTTATATATATATATATATTTTAATAAA [CACACA_negctrl_site460] | 8.24 ± 0.52 |
| AATTATAAAAAAAAAAAAAAAAAAAAAAACTAAATG [CACACA_negctrl_site1379] | 8.11 ± 0.47 |
| TTTAAAAATATATTCACACAGAAATAGTAAAAGTTA [CACACA_site4587] | 8.58 ± 0.34 |
| TATATATAGAAACACACACACACACCCAAGCGTAGC [CACACA_site63] | 8.73 ± 0.5 |
| ATTATAACTAAATAAATGATATATAATATTTTATTT [XGTACX_negctrl_site234] | 7.84 ± 0.34 |
| AATGTGTACGCACGCACACACAAAAAAATATATATA [CACACA_site2913] | 8.67 ± 0.4 |
| ATCTATATCTATAATACACACATAAATGGATATATA [CACACA_site6284] | 8.31 ± 0.39 |
| CAAGCCCTTCTGCTTACACACAGTAATTATTGTGCA [CACACA_site7399] | 8.62 ± 0.3 |
| TAAATATATTTATAAGCACACACTAATAAACCAACA [CACACA_site8022] | 8.91 ± 0.29 |
| TTATGCAATTTGTATTGTACATTCATGATATTAATA [XGTACX_site5070] | 8.62 ± 0.44 |
| ATTATACATATATAAGTGCAATAATGTTTTTTCCTT | 8.56 ± 0.19 |
